# According to the supplement of paper PMC4604168 (melanoma cell lines):
# Some of the results follow. Most values come without repeats; read them as rough.
# What was measured:
# Assay in all cases: cell count relative to DMSO control; melanoma cells; higher = more viable cells
# Details in all cases: library dose: standard library concentration; 72 h
# SkMel28 = test system: SkMel28
# SkMel2 = test system: SkMel2
# SkMel30 = test system: SkMel30
# SkMel5 = test system: SkMel5
# UACC257 = test system: UACC257
# UACC62 = test system: UACC62
# WM115 = test system: WM115
# WM1716 = test system: WM1716
# WM1745 = test system: WM1745
# WM3526 = test system: WM3526
# 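Note: cells treated in 1,536-well plates, then fixed and DAPI-stained, with nuclei counted from automated high-throughput microscope images.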
Structure (SMILES),cell count (SkMel28) [%],cell count (SkMel2) [%],cell count (SkMel30) [%],cell count (SkMel5) [%],cell count (UACC257) [%],cell count (UACC62) [%],cell count (WM115) [%],cell count (WM1716) [%],cell count (WM1745) [%],cell count (WM3526) [%]
"Cn1c(=O)n(-c2ccc(C(C)(C)C#N)cc2)c2c3cc(-c4cnc5ccccc5c4)ccc3ncc21 + Cn1c(Nc2ccc(C(F)(F)F)cc2)nc2cc(Oc3ccnc(-c4ncc(C(F)(F)F)[nH]4)c3)ccc21 [CHIR265] (first compound 0.02 µM, partner dose 0.4 µM)",23,31.1,45.3,30.1,80.6,38,25.4,54.2,50.7,35.7
"COc1ccc(C2=N[C@@H](c3ccc(Cl)cc3)[C@@H](c3ccc(Cl)cc3)N2C(=O)N2CCNC(=O)C2)c(OC(C)C)c1 [Nutlin-3] + CO[C@H]1C[C@@H]2CC[C@@H](C)[C@@](O)(O2)C(=O)C(=O)N2CCCC[C@H]2C(=O)O[C@H]([C@H](C)C[C@@H]2CC[C@@H](OCCO)[C@H](OC)C2)CC(=O)[C@H](C)/C=C(\C)[C@@H](O)[C@@H](OC)C(=O)[C@H](C)C[C@H](C)/C=C/C=C/C=C/1C [everolimus] (first compound 0.5 µM, partner dose 0.1 µM)",45,74.1,80.9,62,80.2,64.4,54.3,74.1,90.7,69.7
"CC(C)C[C@H](NC(=O)[C@H](Cc1ccccc1)NC(=O)c1cnccn1)B(O)O [Bortezomib] + O=C(Nc1cccc(Cl)c1)Nc1ncc(CCNc2ncnc3ccsc23)s1 [SNS314] (first compound 0.005 µM, partner dose 0.004 µM)",18.1,38.6,27,30,54.9,84.5,21.4,15.8,17.2,24.1
"COc1ccc(C2=N[C@@H](c3ccc(Cl)cc3)[C@@H](c3ccc(Cl)cc3)N2C(=O)N2CCNC(=O)C2)c(OC(C)C)c1 [Nutlin-3] + NC(=O)Nc1cc(-c2cccc(F)c2)sc1C(=O)N[C@H]1CCCNC1 [AZD7762] (first compound 0.5 µM, partner dose 0.1 µM)",33.1,97.8,70.7,69.3,77.2,53.2,47.5,51.5,57.2,59
"CC(C)C[C@H](NC(=O)[C@H](Cc1ccccc1)NC(=O)c1cnccn1)B(O)O [Bortezomib] + Cc1ccc(NC(=O)c2cccc(N(C)C)c2)cc1NC(=O)c1ccc(O)cc1 [ZM336372] (first compound 0.005 µM, partner dose 10 µM)",50.6,53.2,33.6,18.8,73.6,65.2,27.8,28.5,16.4,31
"Cc1cc(Nc2cc(N3CCN(C)CC3)nc(/C=C/c3ccccc3)n2)n[nH]1 + O=C(O)c1ccc(-c2c[nH]c3ncc(-c4ccccc4)cc23)cc1C1CCCC1 [GSK650394] (first compound 0.2 µM, partner dose 0.8 µM)",63.4,74.3,93,83.2,83.8,92,55.5,75.8,80.8,82.7
"Cc1cc(Nc2cc(N3CCN(C)CC3)nc(/C=C/c3ccccc3)n2)n[nH]1 + CC(C)(C)c1cnc(CSc2cnc(NC(=O)C3CCNCC3)s2)o1 [SNS-032] (first compound 0.2 µM, partner dose 0.05 µM)",47,63.7,105,101,91.4,78.2,61,83.8,53.8,93.6
"Cn1c(=O)n(-c2ccc(C(C)(C)C#N)cc2)c2c3cc(-c4cnc5ccccc5c4)ccc3ncc21 + CCCS(=O)(=O)Nc1ccc(F)c(C(=O)c2c[nH]c3ncc(Cl)cc23)c1F [PLX4720] (first compound 0.02 µM, partner dose 0.4 µM)",43.8,71.4,57.9,70.6,106,65.1,62.2,69.3,69.3,52
"Cc1cn(-c2cc(NC(=O)c3ccc(C)c(Nc4nccc(-c5cccnc5)n4)c3)cc(C(F)(F)F)c2)cn1 [nilotinib] + O=C(O)c1ccc2c(c1)nc(Nc1cccc(Cl)c1)c1ccncc12 [CX4945] (first compound 1 µM, partner dose 2 µM)",71.7,96.8,72.3,82.9,108,74.2,78.8,98.6,61.2,78.5
"Cc1cc(Nc2cc(N3CCN(C)CC3)nc(/C=C/c3ccccc3)n2)n[nH]1 + OCCn1cc(-c2cnc3nnn(Cc4ccc5ncccc5c4)c3n2)cn1 [PF04217903] (first compound 0.2 µM, partner dose 5 µM)",84.2,98.4,108,72.9,87.4,95,51.4,97.8,72.5,84.6
"Cc1cn(-c2cc(NC(=O)c3ccc(C)c(Nc4nccc(-c5cccnc5)n4)c3)cc(C(F)(F)F)c2)cn1 [nilotinib] + CC(C)(C)c1cnc(CSc2cnc(NC(=O)C3CCNCC3)s2)o1 [SNS-032] (first compound 1 µM, partner dose 0.05 µM)",47,88.1,100,78.2,111,63.2,68.9,90.4,89.1,89.5
"COc1ccc(C2=N[C@@H](c3ccc(Cl)cc3)[C@@H](c3ccc(Cl)cc3)N2C(=O)N2CCNC(=O)C2)c(OC(C)C)c1 [Nutlin-3] + Cn1nnc2c(C(N)=O)ncn2c1=O [temozolomide] (first compound 0.5 µM, partner dose 10 µM)",25.4,103,55.1,64.3,67,37,49.5,46.5,90.5,76.5
"COc1ccc(C2=N[C@@H](c3ccc(Cl)cc3)[C@@H](c3ccc(Cl)cc3)N2C(=O)N2CCNC(=O)C2)c(OC(C)C)c1 [Nutlin-3] + C=CCNC1=C2C[C@@H](C)C[C@H](OC)[C@H](O)[C@@H](C)/C=C(\C)[C@H](OC(N)=O)[C@@H](OC)/C=C\C=C(/C)C(=O)NC(=CC1=O)C2=O [Tanespimycin] (first compound 0.5 µM, partner dose 0.01 µM)",43.9,89,84.6,56.4,70,52,35.1,71.7,52.4,71.7
"Cn1c(=O)n(-c2ccc(C(C)(C)C#N)cc2)c2c3cc(-c4cnc5ccccc5c4)ccc3ncc21 + O=C(Nc1cccc(Cl)c1)Nc1ncc(CCNc2ncnc3ccsc23)s1 [SNS314] (first compound 0.02 µM, partner dose 0.004 µM)",41.4,47.2,75.7,87.5,88.2,80.8,48.6,64.5,93.4,74.9
"Cc1cc(Nc2cc(N3CCN(C)CC3)nc(/C=C/c3ccccc3)n2)n[nH]1 + Nc1ncn([C@H]2C[C@H](O)[C@@H](CO)O2)c(=O)n1 [decitabine] (first compound 0.2 µM, partner dose 0.5 µM)",83.4,86.5,92.9,85.4,90.7,71.9,72.5,74.1,75.3,76
"Cc1cc(Nc2cc(N3CCN(C)CC3)nc(/C=C/c3ccccc3)n2)n[nH]1 + C[C@]1(c2nc3c(C(N)=O)cccc3[nH]2)CCCN1 [Veliparib] (first compound 0.2 µM, partner dose 7 µM)",50.5,89.1,78.1,60.3,111,64,63.1,89.5,70.7,84.6
"COc1ccc(C2=N[C@@H](c3ccc(Cl)cc3)[C@@H](c3ccc(Cl)cc3)N2C(=O)N2CCNC(=O)C2)c(OC(C)C)c1 [Nutlin-3] + COc1ccc(Cl)c(Nc2nc3ccccc3nc2NS(=O)(=O)c2cccc(NC(=O)C(C)(C)N)c2)c1 [XL147] (first compound 0.5 µM, partner dose 4 µM)",43.3,88.2,117,63.9,79.7,65.9,72,76.7,101,75.2
"COc1ccc(C2=N[C@@H](c3ccc(Cl)cc3)[C@@H](c3ccc(Cl)cc3)N2C(=O)N2CCNC(=O)C2)c(OC(C)C)c1 [Nutlin-3] + Cc1ccc(NC(=O)c2cccc(N(C)C)c2)cc1NC(=O)c1ccc(O)cc1 [ZM336372] (first compound 0.5 µM, partner dose 10 µM)",76.3,81.6,105,93.4,90,72.2,74.6,112,92.2,81.4
"Cc1cn(-c2cc(NC(=O)c3ccc(C)c(Nc4nccc(-c5cccnc5)n4)c3)cc(C(F)(F)F)c2)cn1 [nilotinib] + Cc1cc(Nc2cc(N3CCN(C)CC3)nc(/C=C/c3ccccc3)n2)n[nH]1 [ENMD2076] (first compound 1 µM, partner dose 0.2 µM)",82.8,107,91,76,101,64.5,64.7,79,59.9,95.5
"Cc1cc(Nc2cc(N3CCN(C)CC3)nc(/C=C/c3ccccc3)n2)n[nH]1 + CO[C@H]1C[C@@H]2CC[C@@H](C)[C@@](O)(O2)C(=O)C(=O)N2CCCC[C@H]2C(=O)O[C@H]([C@H](C)C[C@@H]2CC[C@@H](OCCO)[C@H](OC)C2)CC(=O)[C@H](C)/C=C(\C)[C@@H](O)[C@@H](OC)C(=O)[C@H](C)C[C@H](C)/C=C/C=C/C=C/1C [everolimus] (first compound 0.2 µM, partner dose 0.1 µM)",38.9,62.2,74.2,50.7,79.2,65.6,62.3,63.8,82.3,51.6
"COc1ccc(C2=N[C@@H](c3ccc(Cl)cc3)[C@@H](c3ccc(Cl)cc3)N2C(=O)N2CCNC(=O)C2)c(OC(C)C)c1 [Nutlin-3] + Nc1ccn([C@@H]2O[C@H](CO)[C@@H](O)C2(F)F)c(=O)n1 [gemcitabine] (first compound 0.5 µM, partner dose 0.002 µM)",78.9,91.9,102,75,92.9,63.1,70.8,73.5,50.5,80.9
